Measured values from PubChem BioAssay AID651711 (Broad Institute, 2012).
The whole screen tested about 350,000 compounds, of which about 180 (0.051%) were called active. Inconclusive means that the source gave no clear call. Such entries were picked first, then a sample of the others.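 Rule for the calls: active = mean replicate inhibition above about 25%, with every replicate also reaching it (limit read from the data, passing the limit was not always enough); inconclusive = only one of those two criteria met; inactive = neither criterion met.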

What follows are compounds tested against Protein disulfide-isomerase A6 (Homo sapiens) (UniProt Q15084) (assay: inhibitors of ERp5-driven insulin aggregation, primary screen, biochemical, turbidity, absorbance 650 nm, single point (AID 651711)). Settings: 90 min, at 9.99 µM, active compounds read high.
UniProt Q15084, sequence (Q15084 whole entry, looked up): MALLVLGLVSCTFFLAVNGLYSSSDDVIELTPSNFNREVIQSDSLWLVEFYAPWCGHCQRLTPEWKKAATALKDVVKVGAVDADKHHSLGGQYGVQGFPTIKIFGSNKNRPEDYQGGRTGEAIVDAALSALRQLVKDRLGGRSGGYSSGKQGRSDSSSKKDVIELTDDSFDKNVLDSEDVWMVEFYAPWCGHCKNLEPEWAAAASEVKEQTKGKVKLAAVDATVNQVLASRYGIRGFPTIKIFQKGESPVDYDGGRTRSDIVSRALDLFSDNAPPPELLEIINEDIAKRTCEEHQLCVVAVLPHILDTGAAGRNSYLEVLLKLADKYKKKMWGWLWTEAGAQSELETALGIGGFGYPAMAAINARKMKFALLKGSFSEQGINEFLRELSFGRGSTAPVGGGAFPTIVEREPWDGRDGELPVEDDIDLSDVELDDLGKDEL
For `CC(=O)c1cccc(-c2ccnc3c2CC(C(=O)NCC2CC2)O3)c1` (stereo not given), the inhibition was inconclusive: 50%.
With `CCOc1ccccc1C(=O)NCC(=O)OCCOc1cccc(Cl)c1` the inhibition was inactive: -5.57%.
`O=C(COC(=O)c1ccc([N+](=O)[O-])cc1Cl)Nc1cccnc1Cl` was tested, and the inhibition was inactive: 4.24%.
For `COc1ccc(C)cc1Nc1nnc(C)c(=O)[nH]1`, the inhibition was inconclusive: 42.5%.
For `COc1ccccc1S(=O)(=O)N1C[C@@H]2N[C@H](C1)C2c1ccc(-c2cccc(F)c2)cc1` (stereo not given in full), the inhibition was inconclusive: 26%.
For `C[C@H]1CN([C@@H](C)CO)C(=O)c2cc(NC(=O)Nc3ccc4c(c3)OCO4)ccc2O[C@H]1CN(C)C(=O)NC1CCCCC1`, the inhibition was inactive: 4.81%.
For `S=C(NCCc1ccccc1)NC1CC1`, the inhibition was inconclusive: 37.3%.
For `COc1ccc(N2CCN(C(=O)C3CCN(S(=O)(=O)c4cccs4)CC3)CC2)cc1`, the inhibition was inactive: -3.19%.
For `C/C(=C\C(=O)c1ccccc1)Nc1cccc(O)c1`, the inhibition was inconclusive: 35.1%.
With `Cc1c(CCO)c(=O)n(-c2ccccc2)n1S(=O)(=O)c1ccc([N+](=O)[O-])cc1` the inhibition was inconclusive: 31.7%.
In the case of `Cc1ccc(/C=N/NC(=O)c2nc3nc(C)cc(C)n3n2)cc1`, the inhibition was inconclusive: 37.1%.
For `Cc1ccccc1-c1ccc([C@@H]2[C@H]3CN(C(=O)Nc4ccccc4)CCCCN3[C@H]2CO)cc1`, the inhibition was inactive: 4.13%.
`O=C(Cn1c(O)c(/C=C2\C=Nc3ccccc32)sc1=O)Nc1ccc2c(c1)OCO2` was tested, and the inhibition was inconclusive: 42.8%.
For `O=C(COC(=O)CCc1nc2ccccc2s1)NCc1ccco1`, the inhibition was inconclusive: 43.1%.
`COc1ccccc1C#Cc1cnc2c(c1)C(=O)N([C@@H](C)CO)C[C@@H](C)[C@@H](CN(C)C(=O)CN(C)C)O2` was tested, and the inhibition was inactive: -1.98%.
With `Cc1ccc(C)n1CCN1CCN(S(=O)(=O)c2ccc(F)cc2F)CC1` the inhibition was inconclusive: 25.1%.
`C[C@@H]1CN([C@H](C)CO)S(=O)(=O)c2ccc(-c3ccc(C(=O)N(C)C)cc3)cc2O[C@H]1CN(C)C(=O)C1CCOCC1` was tested, and the inhibition was inconclusive: 48.3%.
With `O=[N+]([O-])c1ccc(Nc2cccc(F)c2)nc1` the inhibition was inconclusive: 33.3%.
With `C[C@H]1CCCCO[C@@H](CN(C)C(=O)c2ccccc2)[C@@H](C)CN([C@@H](C)CO)C(=O)c2cc(NC(=O)c3ccncc3)ccc2O1` the inhibition was inconclusive: 50.7%.
In the case of `CCN(CC)NC(=O)Nc1ccccc1`, the inhibition was inconclusive: 42%.
With `O=C(CSc1nnc2ccccn12)Nc1cccc(-c2nc3ccccc3s2)c1` the inhibition was inconclusive: 33.9%.
For `CCC(CC)NC(=O)Nc1ccccc1C(F)(F)F`, the inhibition was inactive: 1.83%.
In the case of `Cc1cc(C(F)F)n2ncc(C(=O)O)c2n1`, the inhibition was inconclusive: 37.5%.
`O=C(/C=C/c1ccc(S(=O)(=O)N2CCOCC2)cc1)NCc1ccc(Cl)cc1` was tested, and the inhibition was inactive: -3.98%.
For `Cc1ccc(-n2c(CNc3ccc(F)cc3)nnc2SCC(=O)O)cc1`, the inhibition was inconclusive: 42.8%.
`CN(C)S(=O)(=O)c1ccc(NC(=O)COC(=O)C2COc3ccccc3O2)cc1` (stereo not given) was tested, and the inhibition was inactive: 1.95%.
For `COc1ccc2c3c(n(C)c2c1)[C@@H](CO)N(C(=O)Nc1ccc(F)cc1)CC31CCN(C)CC1`, the inhibition was inactive: 4.15%.
With `Cc1cc(CNC(=O)CC2C(=O)NCCN2CC(c2ccccc2)c2ccccc2)on1` (stereo not given) the inhibition was inconclusive: 39.9%.
`COc1cccc(N2CCN(C(=O)c3cc4c(OC)c(OC)c(OC)cc4[nH]3)CC2)c1` was tested, and the inhibition was inconclusive: 56.3%.
For `COC(=O)c1cc(Nc2cc(C)c3ccc(O)cc3n2)cc(C(=O)OC)c1`, the inhibition was inconclusive: 38.3%.
With `C[C@H]1CN([C@@H](C)CO)C(=O)c2cccc(NC(=O)C3CCOCC3)c2O[C@@H]1CN(C)S(=O)(=O)c1ccccc1` the inhibition was inactive: -2.26%.
`CCN(CC)C(=O)c1sc(NC(=O)c2cccc([N+](=O)[O-])c2)c(C#N)c1C` was tested, and the inhibition was inconclusive: 39.1%.
With `CC(C)NC(=O)N(C)C[C@H]1Oc2ccc(NS(=O)(=O)c3cn(C)cn3)cc2CC(=O)N([C@@H](C)CO)C[C@@H]1C` the inhibition was inactive: -3.42%.
In the case of `CCOC(=O)C1CSCCS(=O)(=O)N1Cc1cc(F)ccc1Br` (stereo not given), the inhibition was inactive: -0.343%.
In the case of `O=C(NC1CCCCCC1)c1cc(S(=O)(=O)N2CCCCC2)ccc1N1CCOCC1`, the inhibition was inconclusive: 39%.
With `Brc1ccc(-c2csc(NC3=NCCCCC3)n2)cc1` the inhibition was inactive: -0.333%.
For `COc1ccc2c3c([nH]c2c1)[C@H](CO)N(C(=O)c1ccc(F)cc1)CC31CCN(C(=O)Nc2cccc(F)c2)CC1`, the inhibition was active: 66.2%.
`COCC(=O)Nc1ccc2c(c1)C(=O)N(C)C[C@H](OC)[C@@H](C)CN(C(=O)c1ccccc1)[C@@H](C)CO2` was tested, and the inhibition was inactive: 14.2%.
With `Cc1cccc(NC(=O)COc2ccc3c(c2)CCC3)n1` the inhibition was inactive: -16.7%.
`CCOC(=O)Nc1ccc2c(c1)N(C(=O)CN)c1ccccc1CC2` was tested, and the inhibition was inconclusive: 27.7%.
For `O=C(Nc1ccccc1Cl)c1ccc2ccccc2c1`, the inhibition was inactive: -1.18%.
For `Cc1ccc(S(=O)(=O)Nc2ccc3c(c2)CC(=O)N([C@H](C)CO)C[C@H](C)[C@@H](CN(C)S(=O)(=O)c2ccc(C)cc2)O3)cc1`, the inhibition was inactive: -3.55%.
In the case of `Cc1cccc(Nc2nccc(N(C)C)c2C#N)c1`, the inhibition was inconclusive: 38.9%.
With `O=c1cnnc(N/N=C/c2c[nH]c3ccccc23)[nH]1` the inhibition was inconclusive: 38.9%.
In the case of `CCCN(C)C[C@@H]1Oc2cc(-c3ccc(F)cc3)ccc2S(=O)(=O)N([C@@H](C)CO)C[C@@H]1C`, the inhibition was active: 31.9%.
With `CC(C)(C)c1cc(NC(=O)c2ccco2)no1` the inhibition was active: 27.7%.
For `Cc1nn(S(=O)(=O)c2cccs2)c(C)c1Sc1ccc([N+](=O)[O-])cc1`, the inhibition was inactive: -4.32%.
`O=C(Nc1ccccc1F)N1C[C@@H]2[C@H](c3ccccc31)[C@H](CO)N2C(=O)C1CC1` was tested, and the inhibition was inactive: -0.521%.
`O=C(Nc1ccc2c(c1)C(=O)NC2=O)c1cccc(C(F)(F)F)c1` was tested, and the inhibition was inconclusive: 52.3%.
In the case of `CCOC(=O)N1CCC(Nc2c(NCCCN(CC)CC)c(=O)c2=O)CC1`, the inhibition was inconclusive: 42.8%.
`COc1cc(C(=O)NCC2(N3CCCCC3)CCCCC2)ccc1OCC(=O)N1CCOCC1` was tested, and the inhibition was inconclusive: 27.2%.
In the case of `O=C(c1cc2cc(Cl)ccc2[nH]1)N1CCN(c2ccccc2F)CC1`, the inhibition was inactive: 1.47%.
For `O=S(=O)(c1ccc2nc(SCc3cccc(Cl)c3)[nH]c2c1)N1CCOCC1`, the inhibition was inconclusive: 59.7%.
For `COc1ccc(NC(=O)C2=CCN(S(=O)(=O)c3ccccc3)CC2)cc1OC`, the inhibition was inconclusive: 38.8%.
For `C[C@@H]1CN([C@@H](C)CO)C(=O)c2cc(-c3ccccc3)cnc2O[C@H]1CN(C)C(=O)c1ccccn1`, the inhibition was inactive: -4.98%.
With `Cc1ccc2nc(/C(C#N)=C\c3ccc(Oc4ccc([N+](=O)[O-])cn4)cc3)[nH]c2c1` the inhibition was inconclusive: 35.4%.
For `CCOCCCNc1nc(C)nc2c1nnn2Cc1c(F)cccc1Cl`, the inhibition was inconclusive: 40.1%.
With `COC(=O)C[C@H]1C[C@H]2c3cc(NC(=O)Cc4ccncc4)ccc3O[C@H]2[C@H](CO)O1` the inhibition was active: 61.1%.
`CCc1cc(CNC(=O)CC2C(=O)NCCN2Cc2c(F)cccc2Cl)on1` (stereo not given) was tested, and the inhibition was inactive: -0.017%.
In the case of `COc1cc2c(cc1OC)CN(C(=O)/C=C/c1ccccc1[N+](=O)[O-])CC2`, the inhibition was inconclusive: 29.8%.
`N#Cc1ccc(Oc2nc(C#N)cc(-c3ccccc3)n2)cc1` was tested, and the inhibition was inconclusive: 35.9%.
In the case of `C[C@@H]1CN([C@H](C)CO)C(=O)c2cc(NC(=O)Nc3cccc4ccccc34)ccc2O[C@@H]1CN(C)C(=O)Nc1ccccc1`, the inhibition was inconclusive: 43.5%.
For `CCOC(=O)CN1C(=O)C(Sc2n[nH]c(-c3ccc(C)cc3)n2)CCc2ccccc21` (stereo not given), the inhibition was inconclusive: 31.2%.
`S=C(NCCCN1CCOCC1)Nc1cccc(Cl)c1` was tested, and the inhibition was inconclusive: 48.7%.
For `CCN1C[C@@H]2[C@@H]3C(=O)N(C)C(=O)[C@@H]3[C@](CC)(C1=O)N2C(=O)c1ccc(Cl)cc1`, the inhibition was inconclusive: 45.8%.
For `COCCNC(=S)N/N=C/c1ccc(-c2ccc([N+](=O)[O-])cc2)o1`, the inhibition was inconclusive: 44.4%.
In the case of `CCOC(=O)c1ccc(NC(=O)CN2C(=O)NC3(CCCCCC3)C2=O)cc1`, the inhibition was inactive: 8.01%.
With `CC(=O)Nc1ccc(NC(=O)CCCSc2nc3ccccc3[nH]2)cc1` the inhibition was inactive: 1.18%.
In the case of `O=C(C[C@@H]1CC[C@@H](NS(=O)(=O)c2ccccc2)[C@@H](CO)O1)NCc1ccc(Cl)c(Cl)c1`, the inhibition was inactive: -2.85%.
For `CNC(=O)C[C@H]1C(=O)N(Cc2ccccc2)C[C@@H]1Cc1ccccc1`, the inhibition was inactive: -5.33%.
`COc1ccc(N(CC(=O)NCc2ccccc2)C(=O)CCC(=O)Nc2cc(C)ccn2)c(OC)c1` was tested, and the inhibition was inconclusive: 37%.
With `CCN=C1NN=C(c2ccc(C)cc2)CS1` the inhibition was inconclusive: 36%.
`COCC(=O)N1CC(=O)N2[C@@H](CO)[C@H](c3ccc(C#CC(C)C)cc3)[C@@H]2C1` was tested, and the inhibition was inactive: -5.28%.
With `O=C(c1ccccc1)c1ccc(N2CCN(C(=O)c3ccc(F)cc3F)CC2)c(F)c1` the inhibition was inconclusive: 26.8%.
For `O=C(C[C@@H]1CC[C@@H]2[C@H](COC[C@@H](O)CN2S(=O)(=O)c2ccccc2)O1)NCCN1CCCC1`, the inhibition was active: 43%.
`Nc1c(-c2nn[nH]n2)cnn1-c1cc(Cl)cc(Cl)c1` was tested, and the inhibition was inconclusive: 36.2%.
With `Nc1ccc(-n2nc3ccccc3n2)cc1` the inhibition was inconclusive: 27.3%.
For `COc1ccc(C(=O)OCc2csc(C)n2)c(O)c1`, the inhibition was inconclusive: 33%.
For `O=c1[nH]c2cc(C(F)(F)F)ccc2n1-c1cc(C(F)(F)F)ccc1O`, the inhibition was inconclusive: 43.9%.
`Nc1ccc(S(=O)(=O)Nc2cnc3ccccc3n2)cc1` was tested, and the inhibition was inconclusive: 29.1%.
